In all, about 33,000 sequences were measured (“E-score (-0.5 to 0.5)”: median about -0.056, highest 2% from about 0.38 on). The list shows a part of the results.

The target in this test is Stb4 (UniProt P50104). Briefly: PBM E-score (8-mer binding enrichment) (E-score (-0.5 to 0.5)); higher = stronger / more preferred TF binding; most listed sequences are background and not binding sites. The following applies: protein concentration: 200 nM; construct: GST-DNA-binding domain. In a few lines: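 The E-score, a modified Wilcoxon-Mann-Whitney statistic, was computed by the Universal PBM Analysis Suite for every ungapped eight-base word pooled with its reverse complement. Scans behind it were normalised with masliner after bound GST-tagged yeast transcription factors were detected with fluorescent anti-GST. The proteins, at about 100-200 nM, had been applied to universal all-10-mer Agilent arrays made double-stranded by primer extension.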
Take GCCCGGGA: the “PBM E-score” value is 0.308. Consider CCCCGCGC, for which the “PBM E-score” value was 0.103. For AAGTCTAC, the “PBM E-score” value is -0.153. Consider CCGCACTC, for which the “PBM E-score” value came out at 0.181. ATAAATTC: the “PBM E-score” value came out at 0.0375. For the sequence AACAAGGT, the “PBM E-score” value was -0.134. On to TACTCCCA, for which the “PBM E-score” value was -0.142. As for CAGGCTAC, the “PBM E-score” value is -0.173. On to CGCATATC, for which the “PBM E-score” value is 0.00065.

On to CTGGTCAC, for which the “PBM E-score” value is -0.242. For CCACACCC, the “PBM E-score” value turned out to be 0.121. As for CATGATCG, the “PBM E-score” value is 0.0688. Turning to GCCCCAGA, the “PBM E-score” value is -0.0494. On to AGGAGTTG, for which the “PBM E-score” value was 0.0175.

Regarding CAAAGCCC, the “PBM E-score” value was 0.0259. As for ACGTGGAC, the “PBM E-score” value was -0.209. With CGGCTAGA, the “PBM E-score” value is 0.338. Then ACCGGACA, with 0.128. As for AAGCATAT, the figure is 0.0485; as for AACCTTCA, -0.238. For the sequence AGCCTACC, the “PBM E-score” value was found to be 0.0309. As for AATATACG, the figure is -0.15; as for GCAATAAA, 0.0629; as for CGTGTCGA, -0.131. As for CATAACTC, the “PBM E-score” value amounted to 0.0732. Turning to CAGGCAAC, the “PBM E-score” value is -0.243. Then ATAATGTG, with -0.202; and CGTATAAG, with 0.0263; and ATCTGACG, with -0.213. As for AATAGATT, the “PBM E-score” value amounted to 0.0863. With CGATTAAG, the “PBM E-score” value was -0.128.

Regarding CACCCTAG, the “PBM E-score” value was -0.227. Regarding ACGACAGC, the “PBM E-score” value was -0.224. For the sequence AATGTGGC, the “PBM E-score” value was -0.087.

AAGATACT: the “PBM E-score” value was found to be 0.0549. Turning to GCGAGCGA, the “PBM E-score” value is -0.0989. Turning to ACCCTCAG, the “PBM E-score” value was -0.236. Take ATCGCATG: the “PBM E-score” value was -0.117. GTTAATCA: the “PBM E-score” value was -0.0342. For the sequence ACGGGAGG, the “PBM E-score” value is 0.16. As for CAACGAAA, the “PBM E-score” value was -0.106. As for ATTAGGAC, the figure is -0.177. As to TCTTACAA, the “PBM E-score” value is -0.149. With GTAAACTA, the “PBM E-score” value is -0.0698. Regarding GCCGCTCA, the “PBM E-score” value is -0.0616. Consider GCACCAGC, for which the “PBM E-score” value is -0.082.

Consider CGGCCCTA, for which the “PBM E-score” value is 0.0377. Regarding CCAAGTTC, the “PBM E-score” value amounted to 0.157. As to GTGTTCCA, the “PBM E-score” value was -0.033.

As for CTTAGTAC, the “PBM E-score” value is -0.183.

On to AGAGGTGA, for which the “PBM E-score” value is -0.305. Take ATCCAGAC: the “PBM E-score” value came out at 0.0746.

On to GCACCAAA, for which the “PBM E-score” value is -0.211. GAAAACAC: the “PBM E-score” value turned out to be 0.191.

Regarding AGTCAACG, the “PBM E-score” value was -0.242. AGTTAATC: the “PBM E-score” value is -0.155. Then ATGGAACG, with -0.00061; and AGTTGCGG, with 0.247. As for ACAGTTAA, the figure is -0.0794; as for ACGCCCTA, -0.0866; as for AGCCGTGA, 0.183. For CAGATGCA, the “PBM E-score” value was -0.36. With AACCACGA, the “PBM E-score” value is -0.149. For CATAACCC, the “PBM E-score” value came to 0.051. On to AGAAACAA, for which the “PBM E-score” value was -0.0711.

As for CTTGCAAA, the “PBM E-score” value amounted to 0.0481. Consider GAATTGTA, for which the “PBM E-score” value is -0.0569. As for CCTTAAAG, the “PBM E-score” value is -0.149. As for CCGTGGCG, the “PBM E-score” value was 0.213. For CATGGCGG, the “PBM E-score” value was found to be 0.148. For ATACAGAA, the “PBM E-score” value was found to be 0.131.

On to CATTTAGG, for which the “PBM E-score” value is -0.174. As for AGCTGGTG, the figure is -0.0692; as for GCTTCGGA, 0.439. As for CCGTTCGA, the figure is 0.064; as for CGCGGCTC, 0.191. CTGCAGAA: the “PBM E-score” value is -0.0161. In the case of GATTATGA, the “PBM E-score” value was -0.0508.

As to CAAGTTCA, the “PBM E-score” value was found to be 0.123. Take CCAAAAAG: the “PBM E-score” value is -0.134. As for GTGTTATA, the figure is -0.0355; as for ACCACGGG, 0.134; as for AATTTTAC, -0.0134.

With CCCGCCGA, the “PBM E-score” value came to 0.367. Then ACATTAAG, with -0.154; and ACCGGTTA, with 0.286. With GGAGGCTA, the “PBM E-score” value turned out to be 0.0179. For the sequence CCCAAGGC, the “PBM E-score” value is -0.178. With GTTGGGTA, the “PBM E-score” value was -0.207. For ATAATCGC, the “PBM E-score” value is -0.083. Turning to AGGGTTCG, the “PBM E-score” value is 0.0469.

As for TCCTTGAA, the “PBM E-score” value is -0.104. ACGGATAT: the “PBM E-score” value was 0.407. As for CCAGGTCC, the figure is 0.0393.

These data come from the supplement of paper PMC3334620.
